This is an account of results in the supplement of paper PMC12217912.

B1: TEV protease; numbered along this chain (parent)
chain: MGESLFKGPRDYNPISSSICHLTNESDGHTTSLYGIGFGPFIITNKHLFRRNNGTLVVQSLHGVFKVKDTTTLQQHLVDGRDMIIIRMPKDFPPFPQKLKFREPQREERICLVTTNFQTKSMSSMVSDTSCTFPSGDGIFWKHWIQTKDGQCGSPLVSTRDGFIVGIHSASNFTNTNNYFTSVPKNFMELLTNQEAQQWVSGWRLNADSVLWGGHKVFMVKPEEPFQPVKEATQL

Variants of B1 are the subject of this test. Briefly: raw area under fraction-flipped curve 0-4 h after induction (AUC4h, not background-subtracted), DNA-recorder readout of cleavage of the substrate (dimensionless); higher = more cleavage of the substrate by the protease variant. Particulars: temperature: 34 °C; time window: 0-4 h after rhamnose induction.

The list shows a part of the results. Sequences were assembled here from the parent chain. Values near 0.05 are background.
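Further: Bxb1 expression induced with 0.2% (w/v) L-rhamnose at OD600 near 0.5, cultures sampled hourly, flipped fraction per protease–substrate barcode pair counted by paired-end Illumina sequencing.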

As for MGESLFKGPRDYNPISSSICHLTNESDGHTTSLYGIGFGPFIITNKHLFRRNNGTLVVQSLHGVFKVKDTTTLQQHLVDGRDMIIIRMPKDFPPFPQKLKFREPQREERICLVTTNFQTKSMSSMVSDTSCTFPSGDGIFWKHWIQTKDGQCGSPLVSTRDGFIVGIHSASNFTNTNNYFTSVPKNYMELLTNQEAQQWVSGWRLNADSVLWGGHKVFMVKPEEPFQPVKEATQL [F187Y], the “area with substrate ENLDFQS” value stood at 0.0531, the “area with substrate ENLEFQS” value was 0.0714, the “area with substrate ENLFFQS” value was 0.0639 and the “area with substrate ENLGFQS” value was 0.0542. Moreover, the “area with substrate ENLHFQS” value was 0.0572, the “area with substrate ENLIFQS” value was 0.073, the “area with substrate ENLKFQS” value is 0.0685 and the “area with substrate ENLMFQS” value was found to be 0.0809. Moreover, the “area with substrate ENLNFQS” value turned out to be 0.0613, the “area with substrate ENLRFQS” value was 0.0509 and the “area with substrate ENLSFQS” value came to 0.0522.
Consider MGESLFKGPRDYNPISSSICHLTNESDGHTTSLYGIGFGPFIITNKHLFRRNNGTLVVQSLHGVFKVKDTTTLQQHLVDGRDMIIIRMPKDFPPFPQKLKFREPQREERICLVTTNFQTKSMSSMVSDTSCTFPSGDGIFWKHWIQTKDGQCGSPLVSTRDGFIVGIHSASNFTNTNNYFTSVPKNFMELLTNQEAQQWVSGWRHNADSVLWGGHKVFMVKPEEPFQPVKEATQL [L205H], for which the “area with substrate ENLDFQS” value stood at 0.0657, the “area with substrate ENLHFQS” value was found to be 0.0621, the “area with substrate ENLNFQS” value was 0.0894 and the “area with substrate ENLRFQS” value was 0.0993.
As to MGESLFKGPRDYNPISSSICHLTNESDGHTTSLYGIGFGPFIITNKHLFRRNNGTLVVQSLHGVFKVKDTTTLQQHLVDGRDMIIIRMPKDFPPFPQKLKFREPQREERICLVTTNFQTKSMSSMVSDTSCTFPSGDGIFWKHWIQTKDGQCGSPLVSTRDGFIVGIHSASNFTNTNNYFTSVPKNFMELLTNQEAQQWVSGWRLNTDSVLWGGHKVFMVKPEEPFQPVKEATQL [A207T], the “area with substrate ENLDFQS” value came out at 0.0815, the “area with substrate ENLFFQS” value turned out to be 0.0918, the “area with substrate ENLGFQS” value is 0.0648 and the “area with substrate ENLHFQS” value was determined as 0.0687. The “area with substrate ENLKFQS” value came to 0.0686, the “area with substrate ENLLFQS” value was determined as 0.0682, the “area with substrate ENLMFQS” value was determined as 0.0653 and the “area with substrate ENLNFQS” value came out at 0.0768. The “area with substrate ENLQFQS” value stood at 0.0651, the “area with substrate ENLRFQS” value stood at 0.0709, the “area with substrate ENLSFQS” value worked out at 0.0577 and the “area with substrate ENLTFQS” value amounted to 0.0782. Also, the “area with substrate ENLVFQS” value was 0.0818 and the “area with substrate ENLWFQS” value stood at 0.0914.
Take MGESLFKGPRDYNPISSSICHLTNESDGHTTSLYGIGFGPFIITNKHLFRRNNGTLVVQSLHGVFKVKDTTTLQQHLVDGRDMIIIRMPKDFPPFPQKLKFREPQREERICLVTTNFQTKSMSSMVSDTSCTFPSGDGIFWKHWIQTKDGQCGSPLVSTRDGFIVGIHSASNFTNTNNYFTSVPKNFMELLTNQEAQQWVSGWRLNKDSVLWGGHKVFMVKPEEPFQPVKEATQL [A207K]: the “area with substrate ENLDFQS” value is 0.0632, the “area with substrate ENLEFQS” value came out at 0.0678, the “area with substrate ENLFFQS” value came out at 0.0693 and the “area with substrate ENLIFQS” value worked out at 0.0921. Also, the “area with substrate ENLNFQS” value is 0.055, the “area with substrate ENLPFQS” value amounted to 0.0706, the “area with substrate ENLQFQS” value amounted to 0.0985 and the “area with substrate ENLRFQS” value stood at 0.0611. Moreover, the “area with substrate ENLSFQS” value amounted to 0.0676 and the “area with substrate ENLWFQS” value stood at 0.0554.
Take MGESLFKGPRDYNPISSSICHLTNESDGHTTSLYGIGFGPFIITNKHLFRRNNGTLVVQSLHGVFKVKDTTTLQQHLVDGRDMIIIRMPKDFPPFPQKLKFREPQREERICLVTTNFQTKSMSSMVSDTSCTFPSGDGIFWKHWIQTKDGQCGSPLVSTRDGFIVGIHSASNFTNTNNYFTSVPKNFMELLTNQNAQQWVSGWRLNADSVLWGGHKVFMVKPEEPFQPVKEATQL [E195N]: the “area with substrate ENLDFQS” value is 0.0494, the “area with substrate ENLEFQS” value came to 0.065, the “area with substrate ENLFFQS” value stood at 0.087 and the “area with substrate ENLGFQS” value stood at 0.0862. The “area with substrate ENLHFQS” value was 0.0667, the “area with substrate ENLIFQS” value was found to be 0.169, the “area with substrate ENLKFQS” value is 0.081 and the “area with substrate ENLLFQS” value turned out to be 0.0832. For the same variant, the “area with substrate ENLPFQS” value turned out to be 0.0607, the “area with substrate ENLRFQS” value stood at 0.0753, the “area with substrate ENLSFQS” value stood at 0.0648 and the “area with substrate ENLTFQS” value was 0.0964. Besides, the “area with substrate ENLVFQS” value turned out to be 0.084.
As for MGESLFKGPRDYNPISSSICHLTNESDGHTTSLYGIGFGPFIITNKHLFRRNNGTLVVQSLHGVFKVKDTTTLQQHLVDGRDMIIIRMPKDFPPFPQKLKFREPQREERICLVTTNFQTKSMSSMVSDTSCTFPSGDGIFWKHWIQTKDGQCGSPLVSTRDGFIVGIHSASNFTNTNNYFTSVPKNFMELLTNQAAQQWVSGWRLNADSVLWGGHKVFMVKPEEPFQPVKEATQL [E195A], the “area with substrate ENLDFQS” value was determined as 0.0573, the “area with substrate ENLFFQS” value was found to be 0.0963, the “area with substrate ENLGFQS” value turned out to be 0.0648 and the “area with substrate ENLHFQS” value was found to be 0.0697. The “area with substrate ENLLFQS” value came to 0.0808, the “area with substrate ENLNFQS” value stood at 0.0639, the “area with substrate ENLQFQS” value came to 0.0723 and the “area with substrate ENLSFQS” value was found to be 0.0514.
For MGESLFKGPRDYNPISSSICHLTNESDGHTTSLYGIGFGPFIITNKHLFRRNNGTLVVQSLHGVFKVKDTTTLQQHLVDGRDMIIIRMPKDFPPFPQKLKFREPQREERICLVTTNFQTKSMSSMVSDTSCTFPSGDGIFWKHWIQTKDGQCGSPLVSTRDGFIVGIHSASNFTNTNNYFTSVPKNFMCLLTNQEAQQWVSGWRLNADSVLWGGHKVFMVKPEEPFQPVKEATQL [E189C], the “area with substrate ENLDFQS” value stood at 0.0677, the “area with substrate ENLEFQS” value stood at 0.0665, the “area with substrate ENLFFQS” value amounted to 0.0655 and the “area with substrate ENLKFQS” value stood at 0.0461. In addition, the “area with substrate ENLLFQS” value was 0.0696, the “area with substrate ENLNFQS” value turned out to be 0.0789, the “area with substrate ENLPFQS” value amounted to 0.0652 and the “area with substrate ENLSFQS” value was 0.0632. Also, the “area with substrate ENLTFQS” value turned out to be 0.0749, the “area with substrate ENLVFQS” value was 0.0682 and the “area with substrate ENLWFQS” value was determined as 0.0542.
MGESLFKGPRDYNPISSSICHLTNESDGHTTSLYGIGFGPFIITNKHLFRRNNGTLVVQSLHGVFKVKDTTTLQQHLVDGRDMIIIRMPKDFPPFPQKLKFREPQREERICLVTTNFQTKSMSSMVSDTSCTFPSGDGIFWKHWIQTKDGQCGSPLVSTRDGFIVGIHSASNFTNTNNYFFSVPKNFMELLTNQEAQQWVSGWRLNADSVLWGGHKVFMVKPEEPFQPVKEATQL [T181F]: the “area with substrate ENLDFQS” value is 0.0691, the “area with substrate ENLEFQS” value was determined as 0.0574, the “area with substrate ENLFFQS” value was determined as 0.0621 and the “area with substrate ENLGFQS” value was 0.0616. For the same variant, the “area with substrate ENLHFQS” value came to 0.0537, the “area with substrate ENLKFQS” value came to 0.0684, the “area with substrate ENLLFQS” value was determined as 0.0462 and the “area with substrate ENLMFQS” value was 0.0439. Moreover, the “area with substrate ENLPFQS” value came to 0.0513, the “area with substrate ENLRFQS” value stood at 0.0475, the “area with substrate ENLTFQS” value is 0.0658 and the “area with substrate ENLVFQS” value was 0.0584. Besides, the “area with substrate ENLWFQS” value came to 0.0429.
For MGESLFKGPRDYNPISSSICHLTNESDGHTTSLYGIGFGPFIITNKHLFRRNNGTLVVQSLHGVFKVKDTTTLQQHLVDGRDMIIIRMPKDFPPFPQKLKFREPQREERICLVTTNFQTKSMSSMVSDTSCTFPSGDGIFWKHWIQTKDGQCGSPLVSTRDGFIVGIHSASNFTNTNNEFTSVPKNFMELLTNQEAQQWVSGWRLNADSVLWGGHKVFMVKPEEPFQPVKEATQL [Y179E], the “area with substrate ENLDFQS” value amounted to 0.0756, the “area with substrate ENLFFQS” value was determined as 0.0696, the “area with substrate ENLGFQS” value was determined as 0.0575 and the “area with substrate ENLMFQS” value was 0.0648. The “area with substrate ENLNFQS” value is 0.0604.
Turning to MGESLFKGPRDYNPISSSICHLTNESDGHTTSLYGIGFGPFIITNKHLFRRNNGTLVVQSLHGVFKVKDTTTLQQHLVDGRDMIIIRMPKDFPPFPQKLKFREPQREERICLVTTNFQTKSMSSMVSDTSCTFPSGDGIFWKHWIQTKDGQCGSPLVSTRDGFIVGIHSASNFTNTNNAFTSVPKNFMELLTNQEAQQWVSGWRLNADSVLWGGHKVFMVKPEEPFQPVKEATQL [Y179A], the “area with substrate ENLDFQS” value came out at 0.051, the “area with substrate ENLEFQS” value came to 0.0536, the “area with substrate ENLFFQS” value turned out to be 0.0571 and the “area with substrate ENLRFQS” value was found to be 0.0591. Besides, the “area with substrate ENLSFQS” value is 0.0638 and the “area with substrate ENLTFQS” value was 0.0798.
